Experimental data reported in patent publication US20230250178A1 (published 2023).
Read-outs that look alike come from different tables or passages of the source.

How the values were obtained:
[1] = target: T1, human CCR8 (human, UniProt P51685 1-355); test: cell-based or functional assay
[2] = target: T1, human CCR8; test: FACS, CHO-hCCR8
[3] = target: T1, human CCR8; test: FACS, HuT78 (endogenous hCCR8)
[4] = target: T2, cynomolgus CCR8 (cynomolgus, UniProt O97665 1-356 (rhesus entry)); test: FACS, CHO-cynoCCR8
T2 construct: also called cynoCCR8; G7NYJ2_CCR8_MACFA
T2 sequence (O97665 other isoform, or with tags, fused parts or gaps): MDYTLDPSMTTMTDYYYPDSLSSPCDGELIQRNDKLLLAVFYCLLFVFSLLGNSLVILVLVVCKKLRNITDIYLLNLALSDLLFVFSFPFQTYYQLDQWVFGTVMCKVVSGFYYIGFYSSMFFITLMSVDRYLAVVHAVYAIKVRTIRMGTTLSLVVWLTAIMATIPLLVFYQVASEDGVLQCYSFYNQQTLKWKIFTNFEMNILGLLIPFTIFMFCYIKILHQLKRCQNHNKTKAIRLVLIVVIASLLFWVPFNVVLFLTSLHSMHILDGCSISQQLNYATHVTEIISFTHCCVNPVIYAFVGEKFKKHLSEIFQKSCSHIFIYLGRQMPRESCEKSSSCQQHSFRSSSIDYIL

[5] = target: T1, human CCR8; test: cell-based or functional assay; remark: listed apart in the source

Binder	IC50, Ca flux assay [1]	EC50 [2]	EC50 [3]	EC50 [4]	IC50, Ca flux assay [5]
TPP-18205 (antibody, human IgG1, lambda, also called 004-F10_497A-M296-L12 + 497A-M326-O09-hIgG1Lambda; copies: 2 + 2) heavy: EVQLLESGGGLVQPGGSLRLSCAASGFTFSSYAMSWVRQAPGKGLEWVSGIRWNSGSKGYAGSVKGRFTISRDNSKNTLYLQMNSLRAEDTAVYYCVRSGNYYVGYHGMDVWGQGTLVTVSS[here human IgG1 constant region without letters] light: QSVLTQPPSASGTPGQRVTISCSGGNSNIGTYFVSWYQQLPGTAPKLLIYTNNQRPSGVPDRFSGSKSGTSASLAISGLRSEDEADYYCETWDSNTRVFGGGTKLTVLGQPKAAPSVTLFPPSSEELQANKATLVCLISDFYPGAVTVAWKADSSPVKAGVETTTPSKQSNNKYAASSYLSLTPEQWKSHRSYSCQVTHEGSTVEKTVAPTECS	1.6 nM	8.33 nM	141 nM	85.9 nM	–
TPP-17577 (antibody, human IgG1, lambda, also called 497A-M178-K09-1-hIgG1Lambda; copies: 2 + 2) heavy: EVQLLESGGGLLQPGGSLRLSCAASGFTFSNAWMSWVRQAPGKGLEWVAVISYDGRNKYSADSVKGRFTISRDNSKNTLYLQMNSLRAEDTAVYYCARGLPYGYWGQGTLVTVSS[here human IgG1 constant region without letters] light: QSVLTQPPSASGTPGQRVTISCSGSSSNIGSNTVNWYQQLPGTAPKLLIYRNNQRPSGVPDRFSGSKSGTSASLAISGLRSEDEADYYCAAWDDSLKALVFGGGTKLTVLGQPKAAPSVTLFPPSSEELQANKATLVCLISDFYPGAVTVAWKADSSPVKAGVETTTPSKQSNNKYAASSYLSLTPEQWKSHRSYSCQVTHEGSTVEKTVAPTECS	93.8 nM	11.1 nM	–	9.81 nM	–
TPP-21045 (antibody, human IgG1, lambda, also called 17578-gl79-hIgG1-wt-Lambda; copies: 2 + 2) heavy: EVQLLESGGGLVQPGGSLRLSCAASGFTFSSAWMSWVRQAPGKGLEWVSGISWSGGSTGYALSVKGRFTISRDNSKNTLYLQMNSLRAEDTAVYYCARTYSGHYGPFFDYWGQGTLVTVSS[here human IgG1 constant region without letters] light: QSVLTQPPSASGTPGQRVTISCSGSSSNIGSHTVNWYQQLPGTAPKLLIYRNNQRPSGVPDRFSGSKSGTSASLAISGLRSEDEADYYCAAWDDSLNGWVFGGGTKLTVLGQPKAAPSVTLFPPSSEELQANKATLVCLISDFYPGAVTVAWKADSSPVKAGVETTTPSKQSNNKYAASSYLSLTPEQWKSHRSYSCQVTHEGSTVEKTVAPTECS	–	–	–	–	0.29 nM
TPP-18429 (antibody, human IgG1, lambda, also called 18206-gl10-hIgG1Lambda; copies: 2 + 2) heavy: EVQLLESGGGLVQPGGSLRLSCAASGFTFSHYGMHWVRQAPGKGLEWVSGINWNGGSTGYADSVKGRFTISRDNSKNTLYLQMNSLRAEDTAVYYCARGHHSGYDGRFFDYWGQGTLVTVSS[here human IgG1 constant region without letters] light: QSVLTQPPSVSGTPGQRVTISCTGSSSNIGAGYNVHWYQQLPGTAPKLLIYTNNRRPSGVPDRFSGSKSGTSASLAISGLRSEDEADYYCAAWDASLSGWVFGGGTKLTVLGQPKAAPSVTLFPPSSEELQANKATLVCLISDFYPGAVTVAWKADSSPVKAGVETTTPSKQSNNKYAASSYLSLTPEQWKSHRSYSCQVTHEGSTVEKTVAPTECS	–	1.48 nM	29.3 nM	2.25 nM	–
TPP-18430 (antibody, human IgG1, lambda, also called 18206-gl11-hIgG1Lambda; copies: 2 + 2) heavy: EVQLLESGGGLVQPGGSLRLSCAASGFTFSHYGMHWVRQAPGKGLEWVSGINWNGGSTGYADSVKGRFTISRDNSKNTLYLQMNSLRAEDTAVYYCARGHHSGYDGRFFDYWGQGTLVTVSS[here human IgG1 constant region without letters] light: QSVLTQPPSASGAPGQRVTISCTGSSSNIGAGYNVHWYQQLPGTAPKLLIYTNNRRPSGVPDRFSGSKSGTSASLAISGLRSEDEADYYCAAWDASLSGWVFGGGTKLTVLGQPKAAPSVTLFPPSSEELQANKATLVCLISDFYPGAVTVAWKADSSPVKAGVETTTPSKQSNNKYAASSYLSLTPEQWKSHRSYSCQVTHEGSTVEKTVAPTECS	–	1.69 nM	52.4 nM	1.37 nM	–
TPP-18433 (antibody, human IgG1, lambda, also called 18206-gl14-hIgG1Lambda; copies: 2 + 2) heavy: EVQLLESGGGLVQPGGSLRLSCAASGFTFSSYGMHWVRQAPGKGLEWVSGINWNGGSTGYADSVKGRFTISRDNSKNTLYLQMNSLRAEDTAVYYCARGHHSGYDGRFFDYWGQGTLVTVSS[here human IgG1 constant region without letters] light: QSVLTQPPSASGTPGQRVTISCTGSSSNIGAGYNVHWYQQLPGTAPKLLIYTNNRRPSGVPDRFSGSKSGTSASLAISGLRSEDEADYYCAAWDASLSGWVFGGGTKLTVLGQPKAAPSVTLFPPSSEELQANKATLVCLISDFYPGAVTVAWKADSSPVKAGVETTTPSKQSNNKYAASSYLSLTPEQWKSHRSYSCQVTHEGSTVEKTVAPTECS	–	1.48 nM	33 nM	1.92 nM	–
TPP-18436 (antibody, human IgG1, lambda, VH G50A against TPP-18206; also called 18206-gl17-hIgG1Lambda; copies: 2 + 2) heavy: EVQLLESGGGLVQPGGSLRLSCAASGFTFSHYGMHWVRQAPGKGLEWVSAINWNGGSTGYADSVKGRFTISRDNSKNTLYLQMNSLRAEDTAVYYCARGHHSGYDGRFFDYWGQGTLVTVSS[here human IgG1 constant region without letters] light: QSVLTQPPSASGTPGQRVTISCTGSSSNIGAGYNVHWYQQLPGTAPKLLIYTNNRRPSGVPDRFSGSKSGTSASLAISGLRSEDEADYYCAAWDASLSGWVFGGGTKLTVLGQPKAAPSVTLFPPSSEELQANKATLVCLISDFYPGAVTVAWKADSSPVKAGVETTTPSKQSNNKYAASSYLSLTPEQWKSHRSYSCQVTHEGSTVEKTVAPTECS	–	1.12 nM	3.76 nM	0.442 nM	–

Other lines, results leading:

IC50, Ca flux assay [1]	EC50 [2]	EC50 [3]	EC50 [4]	IC50, Ca flux assay [5]	Binder
–	–	–	0.455 nM	–	TPP-27496 (antibody, human IgG1, lambda, 70% afucosylated, also called TPP-27496 (LS); copies: 2 + 2) heavy: EVQLLESGGGLVQPGGSLRLSCAASGFTFSSYGMHWVRQAPGKGLEWVSAINWNGGSTGYADSVKGRFTISRDNSKNTLYLQMNSLRAEDTAVYYCARGHHSGYDGRFFDYWGQGTLVTVSS[here human IgG1 constant region with changes without letters] light: QSVLTQPPSVSGAPGQRVTISCTGSSSNIGAGYNVHWYQQLPGTAPKLLIYTNNRRPSGVPDRFSGSKSGTSASLAISGLRSEDEADYYCAAWDASLSGWVFGGGTKLTVLGQPKAAPSVTLFPPSSEELQANKATLVCLISDFYPGAVTVAWKADSSPVKAGVETTTPSKQSNNKYAASSYLSLTPEQWKSHRSYSCQVTHEGSTVEKTVAPTECS
–	2.56 nM	5.02 nM	0.377 nM	–	TPP-21047 (antibody, human IgG1, lambda, also called 17578-gl81-hIgG1-wt-Lambda; copies: 2 + 2) heavy: EVQLLESGGGLVQPGGSLRLSCAASGFTFSSAWMSWVRQAPGKGLEWVSGISWSGGRTGYALSVKGRFTISRDNSKNTLYLQMNSLRAEDTAVYYCARTYSGHYGPYFDYWGQGTLVTVSS[here human IgG1 constant region without letters] light: QSVLTQPPSASGTPGQRVTISCSGSSSNIGSHTVNWYQQLPGTAPKLLIYRNNQRPSGVPDRFSGSKSGTSASLAISGLRSEDEADYYCAAWDDSLNGWVFGGGTKLTVLGQPKAAPSVTLFPPSSEELQANKATLVCLISDFYPGAVTVAWKADSSPVKAGVETTTPSKQSNNKYAASSYLSLTPEQWKSHRSYSCQVTHEGSTVEKTVAPTECS
–	–	–	0.418 nM	–	TPP-27477 (antibody, human IgG1, lambda, also called 18206-gl10-gl25-hIgG1Lambda; copies: 2 + 2) heavy: EVQLLESGGGLVQPGGSLRLSCAASGFTFSSYGMHWVRQAPGKGLEWVSAINWNGGSTGYADSVKGRFTISRDNSKNTLYLQMNSLRAEDTAVYYCARGHHSGYDGRFFDYWGQGTLVTVSS[here human IgG1 constant region without letters] light: QSVLTQPPSVSGTPGQRVTISCTGSSSNIGAGYNVHWYQQLPGTAPKLLIYTNNRRPSGVPDRFSGSKSGTSASLAISGLRSEDEADYYCAAWDASLSGWVFGGGTKLTVLGQPKAAPSVTLFPPSSEELQANKATLVCLISDFYPGAVTVAWKADSSPVKAGVETTTPSKQSNNKYAASSYLSLTPEQWKSHRSYSCQVTHEGSTVEKTVAPTECS
–	–	–	1.02 nM	–	TPP-27478 (antibody, human IgG1, lambda, also called 18206-gl11-gl25-hIgG1Lambda; copies: 2 + 2) heavy: EVQLLESGGGLVQPGGSLRLSCAASGFTFSSYGMHWVRQAPGKGLEWVSAINWNGGSTGYADSVKGRFTISRDNSKNTLYLQMNSLRAEDTAVYYCARGHHSGYDGRFFDYWGQGTLVTVSS[here human IgG1 constant region without letters] light: QSVLTQPPSASGAPGQRVTISCTGSSSNIGAGYNVHWYQQLPGTAPKLLIYTNNRRPSGVPDRFSGSKSGTSASLAISGLRSEDEADYYCAAWDASLSGWVFGGGTKLTVLGQPKAAPSVTLFPPSSEELQANKATLVCLISDFYPGAVTVAWKADSSPVKAGVETTTPSKQSNNKYAASSYLSLTPEQWKSHRSYSCQVTHEGSTVEKTVAPTECS
–	2.22 nM	13.1 nM	5.88 nM	–	TPP-27479 (antibody, human IgG1, lambda, also called 18206-gl13-gl14-hIgG1Lambda; copies: 2 + 2) heavy: EVQLLESGGGLVQPGGSLRLSCAASGFTFSSYGMHWVRQAPGKGLEWVSGINWNGGSTGYADSVKGRFTISRDNSKNTLYLQMNSLRAEDTAVYYCARGHHSGYDGRFFDYWGQGTLVTVSS[here human IgG1 constant region without letters] light: QSVLTQPPSVSGAPGQRVTISCTGSSSNIGAGYNVHWYQQLPGTAPKLLIYTNNRRPSGVPDRFSGSKSGTSASLAISGLRSEDEADYYCAAWDASLSGWVFGGGTKLTVLGQPKAAPSVTLFPPSSEELQANKATLVCLISDFYPGAVTVAWKADSSPVKAGVETTTPSKQSNNKYAASSYLSLTPEQWKSHRSYSCQVTHEGSTVEKTVAPTECS
–	1.14 nM	4.71 nM	0.77 nM	–	TPP-27480 (antibody, human IgG1, lambda, also called 18206-gl13-gl20-hIgG1Lambda; copies: 2 + 2) heavy: EVQLLESGGGLVQPGGSLRLSCAASGFTFSHYGMHWVRQAPGKGLEWVSAINWNGGSTGYADSVKGRFTISRDNSKNTLYLQMNSLRAEDTAVYYCARGHHSGYDGRFFDYWGQGTLVTVSS[here human IgG1 constant region without letters] light: QSVLTQPPSVSGAPGQRVTISCTGSSSNIGAGYNVHWYQQLPGTAPKLLIYTNNRRPSGVPDRFSGSKSGTSASLAISGLRSEDEADYYCAAWDASLSGWVFGGGTKLTVLGQPKAAPSVTLFPPSSEELQANKATLVCLISDFYPGAVTVAWKADSSPVKAGVETTTPSKQSNNKYAASSYLSLTPEQWKSHRSYSCQVTHEGSTVEKTVAPTECS
